Laboratory results reported in the supplement of paper PMC4967469.
By IC50 is meant the dose at which the fit gives 50% viability; where the fit passes the top or lowest dose, that dose stands as a limit. AUC sums up the same curve from the lowest dose to the 256-fold higher top dose; the more sensitive the line, the further below 1. A top dose marked as inferred was derived from the fitted curves, not read from the paper.

compound: N.N.[Cl][Pt][Cl] [Cisplatin]; experiment: Viability of human cancer cell lines after 72 h of drug (GDSC screen); settings: top dose inferred
Experimental: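 Human cancer cell lines in 384-well plates, medium with 10% serum, drug for 72 h over a 256-fold dose range (nine 2-fold or five 4-fold steps up to the top dose). Adherent lines were fixed and stained with the nucleic acid dye Syto60, suspension lines read with resazurin; signal relative to control wells, capped at 0 and 100%. One two-parameter sigmoid per drug and line, fitted in a mixed model over all curves with the slope shared within a line.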

Q: How did the AUC turn out when “DEL (lymphoid neoplasm, suspension, top dose 10 µM)” was run?
A: 0.897

Q: And the IC50?
A: 7.8 µM

Q: Which results are given for “DG-75 (Burkitt lymphoma, suspension, top dose 10 µM)”?
A: AUC: 0.948; IC50: > 10 µM

Q: How did the AUC turn out when “DIFI (large intestine, adherent, top dose 10 µM)” was run?
A: 0.944

Q: What about the IC50 of the same cell line?
A: > 10 µM

Q: Which AUC does the source give for DJM-1 (skin, adherent, top dose 10 µM) here?
A: 0.953

Q: And the IC50?
A: > 10 µM

Q: How did the AUC turn out when “DK-MG (glioma, adherent, top dose 10 µM)” was run?
A: 0.924

Q: And the IC50?
A: > 10 µM

Q: For “DMS-53 (small cell lung carcinoma, adherent, top dose 10 µM)”, which AUC is on record?
A: 0.986

Q: What about the IC50 of the same cell line?
A: > 10 µM

Q: “DMS-79 (small cell lung carcinoma, suspension, top dose 10 µM)” was tested. Which AUC did it give?
A: 0.912

Q: What about the IC50 of the same cell line?
A: > 10 µM

Q: With “DMS-114 (small cell lung carcinoma, adherent, top dose 10 µM)” as the cell line, how does the AUC read?
A: 0.895

Q: What about the IC50 of the same cell line?
A: > 10 µM

Q: For “DMS-273 (small cell lung carcinoma, adherent, top dose 10 µM)”, which AUC is on record?
A: 0.863

Q: And the IC50?
A: 9.48 µM

Q: “DND-41 (T-cell leukaemia, suspension, top dose 10 µM)” was tested. Which AUC did it give?
A: 0.941

Q: And the IC50?
A: > 10 µM

Q: “DOHH-2 (B-cell lymphoma, suspension, top dose 10 µM)” was tested. Which AUC did it give?
A: 0.774

Q: And the IC50?
A: 3.83 µM

Q: For “DOK (head and neck, adherent, top dose 10 µM)”, which AUC is on record?
A: 0.89

Q: What about the IC50 of the same cell line?
A: > 10 µM

Q: Which results are given for DOV13 (ovary, adherent, top dose 10 µM)?
A: AUC: 0.881; IC50: > 10 µM

Q: Which AUC does the source give for “DSH1 (bladder, adherent, top dose 10 µM)” here?
A: 0.97

Q: What about the IC50 of the same cell line?
A: > 10 µM

Q: How did the AUC turn out when “DU-145 (prostate, adherent, top dose 10 µM)” was run?
A: 0.875

Q: What about the IC50 of the same cell line?
A: > 10 µM

Q: For “DU-4475 (breast, suspension, top dose 10 µM)”, which AUC is on record?
A: 0.932

Q: What about the IC50 of the same cell line?
A: > 10 µM

Q: How did the AUC turn out when “Daoy (medulloblastoma, adherent, top dose 10 µM)” was run?
A: 0.669

Q: And the IC50?
A: 1.75 µM

Q: Which results are given for “Daudi (Burkitt lymphoma, suspension, top dose 10 µM)”?
A: AUC: 0.975; IC50: > 10 µM

Q: How did the AUC turn out when “Detroit562 (head and neck, adherent, top dose 10 µM)” was run?
A: 0.941

Q: What about the IC50 of the same cell line?
A: > 10 µM

Q: Which AUC does the source give for “DoTc2-4510 (cervix, adherent, top dose 10 µM)” here?
A: 0.879

Q: What about the IC50 of the same cell line?
A: 9.3 µM

Q: With “EB2 (Burkitt lymphoma, suspension, top dose 10 µM)” as the cell line, how does the AUC read?
A: 0.926

Q: What about the IC50 of the same cell line?
A: > 10 µM

Q: With “EB-3 (Burkitt lymphoma, suspension, top dose 10 µM)” as the cell line, how does the AUC read?
A: 0.978

Q: And the IC50?
A: > 10 µM

Q: Which AUC does the source give for “EBC-1 (lung squamous cell carcinoma, adherent, top dose 10 µM)” here?
A: 0.932

Q: And the IC50?
A: > 10 µM

Q: How did the AUC turn out when “EC-GI-10 (oesophagus, adherent, top dose 10 µM)” was run?
A: 0.906

Q: What about the IC50 of the same cell line?
A: > 10 µM

Q: Which results are given for “ECC10 (stomach, suspension, top dose 10 µM)”?
A: AUC: 0.934; IC50: > 10 µM

Q: Which results are given for “EFM-19 (breast, adherent, top dose 10 µM)”?
A: AUC: 0.955; IC50: > 10 µM

Q: Which AUC does the source give for “EFM-192A (breast, adherent, top dose 10 µM)” here?
A: 0.963

Q: What about the IC50 of the same cell line?
A: > 10 µM

Q: “EFO-21 (ovary, adherent, top dose 10 µM)” was tested. Which AUC did it give?
A: 0.953

Q: And the IC50?
A: > 10 µM

Q: How did the AUC turn out when “EFO-27 (ovary, adherent, top dose 10 µM)” was run?
A: 0.891

Q: What about the IC50 of the same cell line?
A: > 10 µM

Q: What does the source list for “EGI-1 (biliary tract, adherent, top dose 10 µM)”?
A: AUC: 0.841; IC50: > 10 µM

Q: What does the source list for “EHEB (lymphoid neoplasm, suspension, top dose 6 µM)”?
A: AUC: 0.922; IC50: > 6 µM

Q: With “EJM (lymphoid neoplasm, semi-adherent, top dose 10 µM)” as the cell line, how does the AUC read?
A: 0.988

Q: What about the IC50 of the same cell line?
A: > 10 µM

Q: For “EKVX (lung adenocarcinoma, adherent, top dose 10 µM)”, which AUC is on record?
A: 0.962

Q: What about the IC50 of the same cell line?
A: > 10 µM

Q: For “EM-2 (chronic myeloid leukaemia, suspension, top dose 10 µM)”, which AUC is on record?
A: 0.954

Q: What about the IC50 of the same cell line?
A: > 10 µM

Q: Which AUC does the source give for “EMC-BAC-1 (lung adenocarcinoma, adherent, top dose 10 µM)” here?
A: 0.906

Q: What about the IC50 of the same cell line?
A: > 10 µM

Q: Which results are given for “EMC-BAC-2 (lung adenocarcinoma, adherent, top dose 10 µM)”?
A: AUC: 0.84; IC50: 8.81 µM

Q: Which results are given for “EN (endometrium, adherent, top dose 10 µM)”?
A: AUC: 0.917; IC50: > 10 µM

Q: With “EPLC-272H (lung squamous cell carcinoma, adherent, top dose 10 µM)” as the cell line, how does the AUC read?
A: 0.898

Q: What about the IC50 of the same cell line?
A: > 10 µM

Q: “ES1 (Ewing sarcoma, adherent, top dose 10 µM)” was tested. Which AUC did it give?
A: 0.807

Q: What about the IC50 of the same cell line?
A: 5.02 µM

Q: “ES4 (Ewing sarcoma, adherent, top dose 10 µM)” was tested. Which AUC did it give?
A: 0.661

Q: What about the IC50 of the same cell line?
A: 1.88 µM

Q: With “ES5 (Ewing sarcoma, adherent, top dose 10 µM)” as the cell line, how does the AUC read?
A: 0.728

Q: What about the IC50 of the same cell line?
A: 3.1 µM

Q: With “ES6 (Ewing sarcoma, adherent, top dose 10 µM)” as the cell line, how does the AUC read?
A: 0.867

Q: What about the IC50 of the same cell line?
A: > 10 µM

Q: What does the source list for “ES7 (Ewing sarcoma, adherent, top dose 10 µM)”?
A: AUC: 0.705; IC50: 2.4 µM

Q: “ES8 (Ewing sarcoma, adherent, top dose 10 µM)” was tested. Which AUC did it give?
A: 0.794

Q: And the IC50?
A: 4.23 µM

Q: With ES-2 (ovary, adherent, top dose 10 µM) as the cell line, how does the AUC read?
A: 0.881

Q: And the IC50?
A: 8.28 µM

Q: Which results are given for “ESO26 (oesophagus, adherent, top dose 10 µM)”?
A: AUC: 0.891; IC50: > 10 µM

Q: For “ESO51 (oesophagus, semi-adherent, top dose 10 µM)”, which AUC is on record?
A: 0.971

Q: What about the IC50 of the same cell line?
A: > 10 µM

Q: “ESS-1 (endometrium, adherent, top dose 10 µM)” was tested. Which AUC did it give?
A: 0.743

Q: And the IC50?
A: 2.83 µM

Q: How did the AUC turn out when “ETK-1 (biliary tract, adherent, top dose 10 µM)” was run?
A: 0.939

Q: What about the IC50 of the same cell line?
A: > 10 µM

Q: What does the source list for “EVSA-T (breast, adherent, top dose 10 µM)”?
A: AUC: 0.904; IC50: 9.97 µM

Q: How did the AUC turn out when “EW-1 (Ewing sarcoma, semi-adherent, top dose 10 µM)” was run?
A: 0.861

Q: What about the IC50 of the same cell line?
A: 7.39 µM

Q: What does the source list for “EW-3 (Ewing sarcoma, adherent, top dose 10 µM)”?
A: AUC: 0.721; IC50: 2.94 µM

Q: Which AUC does the source give for “EW-7 (Ewing sarcoma, semi-adherent, top dose 10 µM)” here?
A: 0.751

Q: And the IC50?
A: 2.95 µM

Q: What does the source list for “EW-11 (Ewing sarcoma, adherent, top dose 10 µM)”?
A: AUC: 0.741; IC50: 3.83 µM

Q: What does the source list for “EW-13 (Ewing sarcoma, suspension, top dose 10 µM)”?
A: AUC: 0.947; IC50: > 10 µM

Q: How did the AUC turn out when “EW-16 (Ewing sarcoma, adherent, top dose 10 µM)” was run?
A: 0.863

Q: What about the IC50 of the same cell line?
A: 9.31 µM

Q: How did the AUC turn out when “EW-18 (Ewing sarcoma, suspension, top dose 10 µM)” was run?
A: 0.924

Q: What about the IC50 of the same cell line?
A: > 10 µM

Q: Which results are given for “EW-22 (Ewing sarcoma, adherent, top dose 10 µM)”?
A: AUC: 0.701; IC50: 2.24 µM

Q: For “EoL-1-cell (haematopoietic neoplasm, suspension, top dose 10 µM)”, which AUC is on record?
A: 0.9

Q: What about the IC50 of the same cell line?
A: > 10 µM

Q: Which results are given for “FADU (head and neck, adherent, top dose 10 µM)”?
A: AUC: 0.893; IC50: > 10 µM
